Results: PubChem BioAssay AID743262 (National Center for Advancing Translational Sciences (NCATS), 2014)
The whole screen tested about 1,300 compounds, of which about 25 (2%) were called active. Another 9% or so got no clear call; they are omitted. Calls come from the whole dose curve; as a rule, active = well fitted activation curve with a large enough effect; inconclusive = small, poorly fitted or top-dose-only effect; inactive = flat fitted curve, though single readings scatter. The list shows a part of the results.

What follows are compounds tested against Glucagon-like peptide 1 receptor (Homo sapiens) (UniProt P43220) (assay: qHTS of GLP-1 Receptor Agonists: Hit Validation). Settings: HEK293 GLP-1R, cAMP-response luciferase, 4-6 h; series mostly up to 46.1 µM; activation: at the top concentration.
Chain of UniProt P43220 (P43220 whole entry, looked up): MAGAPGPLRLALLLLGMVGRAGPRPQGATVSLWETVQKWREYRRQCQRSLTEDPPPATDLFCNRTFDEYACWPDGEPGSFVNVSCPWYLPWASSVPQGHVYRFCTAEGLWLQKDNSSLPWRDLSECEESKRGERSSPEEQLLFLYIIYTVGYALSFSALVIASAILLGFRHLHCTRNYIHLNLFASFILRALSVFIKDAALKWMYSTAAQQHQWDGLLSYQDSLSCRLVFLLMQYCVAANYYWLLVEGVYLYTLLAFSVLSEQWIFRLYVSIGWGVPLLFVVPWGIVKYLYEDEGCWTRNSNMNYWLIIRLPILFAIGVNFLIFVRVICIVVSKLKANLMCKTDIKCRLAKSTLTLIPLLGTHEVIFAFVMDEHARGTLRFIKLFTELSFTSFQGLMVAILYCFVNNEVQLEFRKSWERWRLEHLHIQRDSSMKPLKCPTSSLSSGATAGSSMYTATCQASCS
Description: The overall goal of this project was to develop a novel assay for discovering small molecule ligands for class B1 G protein-coupled receptors (GPCRs). Very few agonists (or inverse agonists) with generally weak activity for this entire group of physiologically important receptors are known to date. To establish proof-of-principle that this critical bottleneck can be overcome with a suitable screening approach, our studies focused on the class B1 receptor for glucagon-like peptide-1 (GLP-1R), a potential therapeutic target for diabetes and neurodegenerative disease. The assay was developed in a "mix and measure" format using a cell-based functional readout. Toward this goal, stably transfected HEK293 cell clones were established that co-express (i) a cAMP-responsive luciferase reporter gene, and (ii) GLP-1Rs that upon ligand interaction either stimulate (agonists) or inhibit (inverse agonists) luciferase activity. In different cell lines to be used for screening, expressed GLP-1Rs are specifically optimized for high sensitivity detection of either weak agonists (hypersensitive receptor) or inverse agonists (constitutively active receptor mutant). In addition, control cell lines were developed that express either the cAMP-responsive reporter gene without recombinant GLP-1Rs (enabling initial exclusion of GLP-1R independent effects of candidate probes), or the reporter gene together with wild type GLP-1Rs (for confirmation of probe activity at this receptor), or the reporter gene in combination with the constitutively active orphan receptor GPR119 (enabling initial exclusion of GLP-1R independent inhibitory effects of candidate inverse agonists). To that end, this assay was optimized for 1536-well format and screened against the MLSMR. NIH Molecular Libraries Probe Production Network [MLPCN] NIH Chemical Genomics Center [NCGC] Grant: NS064851 PI Name: Martin Beinborn, Tufts Medical Center
In a white solid 1536-well plate, 6 uL of cells are dispensed in DMEM without phenol red, 10% Nu serum, and 1% pen-strep medium. The plates are then incubated for 12 hours at 37 deg C at 5% CO2 before 23 nL of compounds are added. After a 4-6 hr incubation at37 deg C and 5% CO2, 3 uL of detection reagent are added and after a 12 min incubation at RT, a luminescent read is obtained on the ViewLux.
Note: % of control where 0% means no effect.

Structure (SMILES)	activation
CSc1nc(N)nc(SCC(=O)OC(C)C)c1C#N	inactive: 5.44%
CNS(=O)(=O)c1ccc(OC)c(-c2nnc3c4ccccc4c(C)nn23)c1	inactive: 20.7%
CS(=O)(=O)c1ccc(Nc2nc(C(N)c3ccccc3)cs2)cc1 (stereo not drawn)	inactive: 0.347%
COc1ccc(N/C=C\C(=O)c2ccc3c(c2)OCO3)cc1OC	inactive: 9.71%
CC(=O)c1cc(C#N)c(SCC(=O)OC(C)(C)C)nc1C	inactive: 4.82%
Brc1ccc(-c2nnc(Cc3ccccc3)o2)cc1	inactive: 2.36%
CCOC(=O)c1ccc2nc(C)c3c(c2c1)OC(C)C3 (stereo not drawn)	inactive: 4.77%
Cc1sc2ncnc(N(C)Cc3cccs3)c2c1C	inactive: 6.84%
O=C(Nn1cnnc1)c1cccc(S(=O)(=O)N2CCOCC2)c1	inactive: -0.469%
CCOc1cc(-c2nccc3cc(OC)c(OC)cc23)cc(OCC)c1OCC	inactive: 14.6%
C=C(C)COc1ccc(-c2nc(N)ncc2-c2ccc(OC)c(OC)c2)c(O)c1	inactive: 21.9%
CCOc1ccc(CCNC(=O)c2ccc3ccccc3n2)cc1OCC	inactive: 2.41%
ClCCn1cnc2c(SCc3ccccc3Cl)ncnc21	inactive: 11.4%
Cc1ccc(CNc2oc(-c3cccs3)nc2C#N)cc1	inactive: 7.42%
COc1ccc2c(c1)c(C(=O)N/N=C/c1ccc(OC)c(OC)c1)c(C)n2C	inactive: 5.77%
Clc1cccc(Nc2nc(-c3cccnc3)cs2)c1	inactive: 4.84%
CCOC(=O)C1=C(COC(=O)c2cc(S(=O)(=O)N3CCOCC3)ccc2F)NC(=O)NC1C (stereo not drawn)	inactive: 20.7%
O=C1CCCc2oc3c(cc(NS(=O)(=O)c4ccc5c6c(cccc46)C(=O)N5)c4ccccc43)c21	inactive: 16.2%
COc1cccc(C(=O)c2c(-c3ccccc3)ncc3cc(OC)c(OC)cc23)c1	inactive: 24.1%
NC(=O)c1nsc(C(=O)N(CC(=O)NC2CCCCC2)Cc2ccc(F)cc2)c1N	inactive: -0.188%
Cc1cc(Cl)ccc1C(=O)C1CCCN(C(=O)CN2CCOC2=O)C1 (stereo not drawn)	inactive: 0.21%
CCCOc1ccc2c(=O)c(-c3cc(C(=O)OC)oc3C)c(C)oc2c1	inactive: 0.445%
COc1ccc(NC(C)=O)cc1S(=O)(=O)NC(Cc1ccccc1)C(=O)NC(C)c1ccccn1 (stereo not drawn)	inactive: -0.833%
CSc1nc2[nH]c3c(c2c2nnnn12)CCCC3	inactive: 5.08%
CCOC(=O)C1=C(N)Oc2cc(C)n(CCc3ccc(OC)c(OC)c3)c(=O)c2C1c1cccnc1 (stereo not drawn)	inactive: 9.06%
COCCn1c(C)cc(C(=O)CSc2nc3ccccc3c(=O)n2C(C)COC)c1C (stereo not drawn)	inactive: 4.39%
Cc1cc(C)cc(C(=O)NCC(=O)OCC(=O)NC2CCCc3ccccc32)c1 (stereo not drawn)	inactive: -0.538%

Structure (SMILES)	activation
Cc1nc(COc2ccccc2Cl)sc1-c1ccnc(N)n1	inactive: 19.3%
CC(=O)Nc1cc(-c2ccccc2Cl)cn2c(-c3ccc(S(C)(=O)=O)cc3)cnc12	inactive: 26.3%
COc1ccc(C(=O)Nc2ccccc2C(=O)N/N=C/c2ccccn2)cc1OC	inactive: 2.4%
CCn1nc(C(=O)OCc2c(C)noc2C)c2ccccc2c1=O	inactive: 5.6%
CCOc1ccc(CCNS(=O)(=O)c2cnc[nH]2)cc1OCC	inactive: -0.341%
CC(C)Oc1ccccc1C1CC(=O)Nc2cc3c(cc21)OCCO3 (stereo not drawn)	inactive: 15.9%
CCN(Cc1ccc(OC)c(F)c1)C(=O)c1cc2ccccc2o1	inactive: 14.9%
O=C(CCC(=O)c1ccccc1)NCc1cccc(C(F)(F)F)c1	inactive: -0.927%
C=CCN1N=C(c2ccc(Cl)s2)CSC1=O	inactive: 4.36%
CCc1cc2c(NCC3CCCO3)nc(C)nc2s1 (stereo not drawn)	inactive: -0.988%
COc1ccc(/C=C2\Sc3ccc(C(=O)NCc4cccnc4)cc3N(C)C2=O)cc1OC	inactive: 26.3%
COc1cc(SC)ccc1C(=O)NC1CCCCC1	inactive: 0.215%
Cc1cccc(C)c1NC(=O)CC(NCc1ccco1)C(=O)O (stereo not drawn)	inactive: -1.01%
CC1(C)Cc2c(c(N3CCCC3)nc3sc4c(N5CCN(CCO)CC5)ncnc4c23)CO1	inactive: 17.7%
CCN(CC(=O)Nc1ccc(NC(C)=O)cc1)C(=O)C1CC1	inactive: -0.0804%
CCn1nc(C(=O)N[C@@H](CCSC)c2nc3ccccc3[nH]2)c2ccccc2c1=O	inactive: 5.64%
CCC1CCCCN1S(=O)(=O)c1ccccc1 (stereo not drawn)	inactive: -0.773%
O=C(N/N=C/c1cn(Cc2ccccc2)c2ccccc12)c1cc(O)cc(O)c1	inactive: 23.1%
CCn1c(SCc2nc3ccccc3s2)nnc1-c1ccccc1	inactive: 2.02%
N/C(Cc1cccs1)=N\OC(=O)COc1ccc(Br)cc1Cl	inactive: -0.482%
C[C@H]1CC[C@H]2C(=O)N[C@H](Cc3ccccc3)C(=O)N2[C@@H]1c1ccccc1	inactive: -1.89%
CC(C)(C)c1nc(NCCO)c2nnn(Cc3ccccc3)c2n1	inactive: 3.59%
Cc1cc(=O)oc2c3c(cc(OCC(=O)NCc4ccncc4)c12)OC(C)(C)CC3	inactive: 4.46%
O=C(COC(=O)c1cc([N+](=O)[O-])ccc1NCCO)Nc1cccnc1Cl	inactive: 2.91%
COc1ccc(-c2cnc3c(NC(C)=O)cc(-c4ccc(C(=O)NC5CC5)cc4)cn23)cc1OC	inactive: 24.6%
CCOC(=O)C1C(=O)OC(C)(C)C1C(C)C(=O)c1ccc(C)cc1C (stereo not drawn)	inactive: 0.36%
